Drawing on PubChem BioAssay (NCI), this text covers growth for 1 compound.

The source holds several records for some structures; these can differ, active in one and inactive in another.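 Interpretation: 100, growth as untreated; towards 0, rising growth inhibition; 0, no net growth; 0 to -100, cell death. Compounds scoring below 10 were considered active.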 A number of entries come with more than one value. They are shown here; other results are not. There may be further records. This drug was run again and again over the years, at the concentration stated with the values; each value is one run. Counts like (3×) give the number of equal values in this list.

The test system of one experiment is NCI-H322M lung. The experiment can be described thus: NCI-60 one-dose screen, 48 h (100 = growth as untreated, 0 = no growth, -100 = all killed). The conditions noted are these: 25 µM.
A further experiment has as its system HOP-62 NSCLC. The description is as above. As to conditions: 0.25 µM.

As for `COc1cccc2c1C(=O)c1c(O)c3c(c(O)c1C2=O)C[C@@](O)(C(=O)CO)C[C@@H]3OC1CC(N)C(O)C(C)O1` (stereo not given in full), the growth entry in the experiment with NCI-H322M lung (runs of 1995) was “active: -16.7 (2×), -23, -4.13, -19.8, 1.06, -36.4, -25 (2×), -58.1, -34.2, -6.14, -39.7, -3.41, -26.2, -20.4, -9.33, -18.2, -18.4, -26.3, -34.9, -4.65, -56.1, -38.4, -41.5, -39, -28.7, -24.8, -40.3, -8.81, -35, -51.9, -48.1, -29, -28.8, 8.29, -35.3, -37.3, -45.1, -7.82%”; in the experiment with NCI-H322M lung (runs of 1996), “active: -32.8, -33.6, -36.2, 4.31, -35, -18.4, 2.45, -24.5, 0.627, 2.89, -31.2, -31, 7.66, -20.2, -24.6, -25.5, -2.72, -15.9, -14.9, -45.3, -49.6, -2.5, 0.839, -23.9, -5.54, -23, -12.7, -41.5, -30, -20 (2×), -8.13, -39.3, -17.2, -22, -37.7, -31.9, -10, -18.8, -6.94, -11.9, -20.4, -21.7, -46.4, -33.9, -44.6, -11.7, -17.4, -25.1, -16.5, -9.17, -60.5, -49.9, -22.2% and inactive: 10.6, 94.3, 45.4, 12.5%”; in the experiment on NCI-H322M lung (runs of 1997), “active: -14.6, -30.7, -39.2, -40.3, -15.7, -50.7, -10.6, -36.9, -23.5, -26.7, -19, -32.6, -32.3, -20.7, -32.4, -39.6, -31.1, 8.68, -33.5, -74.5, -34.9, -25.6, -35.7, -11.6, -29, -20.9, -26.9, -23.3 (2×), -17.4, -13.4, -33.2, -25.9, -33.3, -22, -3.21, -26.2, -21.6, 1.59, -21.4, -21.8, 1.24, -30.9, -3.46, -44.4% and inactive: 21.9%”; in the experiment with NCI-H322M lung (runs of 1998) it was “active: -38.9, -31.7, -27.6, -35, -15.6, -0.554, -31.4, -25.2, -24.1, -45.9, -38.8, -47.4, -7.9, -41.8, -14.4, -29.8, -53.8, -63.3, -22.5, -57.6, -26.6, -3.43, -11, -41, -30.4% and inactive: 16.1%”; in the experiment with NCI-H322M lung (runs of 1999) it was “active: -10.7, -42.6, -36.5, -18.2, -55, -100 (2×), 5.95, -90, -59.8, -67.3, -21.4, -89.8% and inactive: 16.9%”; in the experiment on NCI-H322M lung (runs of 2000), “active: 3.05, -100, -58.6, -93.5%”. Also, the growth result is “inactive: 38.3%, 36.5%” in the experiment on HOP-62 NSCLC (runs of 2006); “inactive: 12.4, 24.7, 23.3, 33.8, 10.9, 30.8, 36.1, 35.9, 36.9 (2×), 45.8, 48.6, 18.6, 45.2, 28.3, 34, 27.9, 40.6, 53.4, 39.7, 22.1, 30.4, 42.6, 74.9, 49.5, 43.9, 34.2, 38.4, 24.3, 26.3, 51.8 (2×), 14.2, 28.8, 28.1, 25, 33.7, 31.6% and active: -1.18%, 4.09%, -1.1%” with HOP-62 NSCLC (runs of 2007); “inactive: 42.1, 27.6, 41.5 (2×), 39, 25.5, 24.2, 33.1, 17.1, 36.6, 40.2, 45.5, 48.8, 45.7, 52.6, 24.5, 35.3, 34.7, 37.8, 43.8, 32.9, 19.7 (2×), 25.2, 32.8, 23.8, 24.1, 12.2, 76.4, 29.8, 22.3, 51, 50, 53.6, 40.9, 42.9, 42.8, 57.8, 47.9, 25.3, 27.2, 18.7, 32.5, 11.4, 24.7% and active: 9.09, -0.999, -6.37, -5.92, 2.49, 8.31, 9.64, 4.31, -11.9, 8.51%” in the experiment on HOP-62 NSCLC (runs of 2008); “inactive: 25.1, 21.2 (2×), 35, 21.5, 19.2 (2×), 23.1 (2×), 34.9, 23.2, 26.6, 30.7 (2×), 36.1, 26.2, 27.8, 30.4 (2×), 18.6 (2×), 24.8 (2×), 26.8, 25.3 (2×), 29.4, 26.3 (2×), 27.1, 30.6, 22, 20.3, 14.1, 11, 45.1, 20.1, 21, 28.3, 16.2, 23.4 (2×), 35.7, 18.4 (2×), 16.5, 27.4, 33, 35.1, 40.1, 40.3, 36.7, 28.9, 29.3, 30.8, 22.7, 15.2, 13.7, 21.6, 20.4, 16.6, 13.4, 20.7, 21.1, 12.4% and active: 8.51, 0.227, -3.91, 6.54, 1.49, -4.75%” in the experiment with HOP-62 NSCLC (runs of 2009); “inactive: 29.9, 25.9, 30.8, 29.6, 28.1, 18.9, 31.4, 10.8, 14.5, 14.7, 34.5, 27, 30.9 (3×), 30.6 (2×), 32.8, 15 (2×), 31.1, 27.8, 11.8, 19, 19.1, 16.7, 19.6, 18.8, 21.1, 24.2, 26.7, 29.5, 15.5, 14.3, 25.3, 30.1, 12.8, 19.5, 13.1, 21.9, 33.5, 29, 22.9, 29.4, 31.5, 35.4, 34.7, 37.8, 40.4, 23.1, 34.9% and active: 0.116%” with HOP-62 NSCLC (runs of 2010); “inactive: 22.1, 23.4, 25.4, 30, 25.3, 31.8, 19.6 (2×), 24.5, 27, 20.9, 32.5, 26.3, 20.4, 29.2 (3×), 22.7, 26.7, 30.5 (2×), 27.1, 38.3, 36.3, 44.8, 41.7, 42.9, 19.2 (2×), 42, 21.5, 12.8, 19, 19.4, 18, 18.4, 17.4, 17.3, 28, 33.6, 31.4, 25.2, 23.5, 25.1 (2×), 28.3, 31.9, 24.6, 31.2, 23.7, 18.8% and active: 6.44, 6.22, -4.04, 8.97, 9.64%” in the experiment on HOP-62 NSCLC (runs of 2011). The growth result in the experiment on HOP-62 NSCLC (runs of 2012) is “inactive: 16.5, 13, 13.9, 27.2, 25.5, 33.4, 35.7 (2×), 24.5, 32.1, 25, 22.9, 21.3, 18.6, 27.9, 11.8, 27.7, 19.1, 33.2, 36.6, 41.3, 42.3, 40.2, 33.3 (2×), 14.8, 23.8, 23.1, 31.1, 29.9, 30.8, 25.4, 37.7 (3×), 35.2, 35.3, 44.7 (2×), 37.5, 36.7, 43.7 (2×), 43.2, 52.1, 30.5, 22.2, 34.6, 40, 33.6, 48.3, 41.9, 56.7, 37.8, 40.3, 37.9, 41, 48.2, 49.7, 46.8, 44.4, 46, 45.9, 53.7%”; with HOP-62 NSCLC (runs of 2013), “inactive: 19, 12.5, 16, 13.3, 10, 35.2, 38.4, 33.6, 37.3, 33.9, 34.3, 37.6, 45.7 (3×), 40.2 (2×), 42.6, 42.3, 41.4, 48.1, 55.6, 48.3, 44.1 (2×), 48.8, 46.3, 37.8, 46.6, 43, 57.6, 59.9, 50.2, 49.1, 39, 40.1, 30.1, 27.6, 43.1, 41.2, 34.2, 30, 26.9, 33.8, 46.2, 33.7, 33.1, 22.7, 22.5, 33, 34.6, 40.9, 48.9, 41.8, 39.4 (2×), 31.9, 45.8, 38.5, 35, 32.6, 33.5, 30.8, 25.8 (2×), 28, 16.3, 15, 21.5, 24.9, 40.3, 38.3, 16.6, 24.1, 19.9, 28.8, 36.2, 17.9% and active: -0.798%, -2.09%, 4.28%”; with HOP-62 NSCLC (runs of 2014), “inactive: 22.3, 34.7, 12, 19.5, 10.7 (2×), 15.9, 29.3 (2×), 18.9 (2×), 47.6, 26.5 (2×), 17.4 (2×), 17.1, 13.3, 37, 22.4, 25.1, 18 (2×), 33.7, 38.4, 26.6, 20.3 (2×), 30.5, 31.5, 29.4 (2×), 33.1, 38.6, 36.5, 40.3, 38.5, 41.5, 42, 36.6, 39.1, 26.2, 24.4, 22.9, 24, 21.3, 24.1, 10.3, 24.8, 12.1 (2×), 18.8, 19, 21.6, 21, 30.3, 26.3, 24.2, 25.4, 25, 18.3, 18.2, 16, 14.8 (2×), 14, 12.4, 16.8% and active: 9.7, 8.86, 4.41, 8.37, 5.64, 6.97, 3.74, 5.56, 9.78, 7.88%”.
